Results published in PubChem BioAssay AID1963576 (National Center for Advancing Translational Sciences (NCATS), 2024).
Among all 46,000 compounds or so, about 60 (0.1%) were called active. About 3% were inconclusive and are not listed. Calls follow the shape of the dose curve; as a rule, active = well fitted inhibition curve with a large enough effect; inconclusive = small, poorly fitted or top-dose-only effect; inactive = no such curve, though single readings can be large or run the other way. Some of the results follow.

Assay: Primary qHTS assay for Inhibitors of ovarian cancer metastasis using an organotypic tumor microenvironment (TME) model. Also: nearly all actives have a fitted effect of over 65% in size.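 As to activity change, negative = inhibition: plate controls were DMSO wells for no effect and tomatine positive control wells for full effect.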
Conditions: SKOV3ip1-GFP adhesion/invasion on 3D omental model, fluorescence; series mostly up to 45.8 µM; activity change, negative = inhibition: at the top concentration
How it was run: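 Adhesion/invasion was scored as fixed GFP-labeled SKOV3ip1 cell counts (488/509 nm), normalized to DMSO and tomatine controls. Cancer cells in serum-free medium, with four compound doses (0.36-46 umol/L), sat 2 hr at RT then 16 hr at 37 C on a 48 hr fibroblast/mesothelial/ECM culture.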

Activity change, negative = inhibition, inactive:
Cc1ccc(-n2ncc3c(NCCCc4ccccc4)ncnc32)cc1 1.3%, Cc1nc(N2CCCC2)c2c(C(=O)Nc3cccc(Cl)c3C)c(C)oc2n1 -28.7%, CCc1ccc(NC(=O)c2cc(S(=O)(=O)N3CCCCCC3)ccc2F)cc1 -9.64%, Cc1ccc(NC(=O)Nc2nnc(SCC(=O)Nc3ccc(F)cc3F)s2)cc1 -5.14%, COc1ccccc1NC(=O)C(=O)c1cc(C)n(-c2ccccc2F)c1C -9.89%, O=C(NCCCc1nc2ccccc2n1Cc1cccc(Cl)c1)c1ccco1 22.4%, Cc1ccc(-n2ncc3c(NCCCN4CCOCC4)ncnc32)cc1Cl 0.113%, Cc1cccc(Cn2cc3c(=O)n(CC(=O)Nc4c(C)cccc4C)nc-3c3cc(F)ccc32)c1 -0.154%, CCC1CCCCN1S(=O)(=O)c1ccc(NC(=O)c2cc(=O)c3c(C)cc(C)cc3o2)cc1 (stereo unspecified) 1.8%, COc1cccc(N2CCN(c3c4c(nc5nncn35)CCC4)CC2)c1 -4.5%, COCCCNC(=O)NC(CCC(C)C)c1c(-n2cccc2)sc2c1CCN(C)C2 (stereo unspecified) -2.2%, Cc1c(Cl)cccc1NC(=O)CCCn1nc(C)c2sc3ccccc3c2c1=O -10.7%, Cc1nnc(C)n1-c1ccc(C(=O)Nc2cccc(Br)c2)cc1 -23.2%, O=C(NCCN1CCN(c2ccccc2)CC1)Nc1cccc(Br)c1 -31.4%, CC1(C)CC(=O)c2cc(-c3nc(-c4ccccc4)cs3)c(=O)[nH]c2C1 -3.49%, CCCCCCCCc1ccc(CCC(N)(CO)CO)cc1 -22.4%, CC(C)Sc1nc2sc3c(c2c(=O)n1Cc1ccccc1)CCCC3 -9.2%, CCOc1ccc(CCNC(=O)CCc2c(C)nc3c(c(C)nn3-c3ccc(C)c(C)c3)c2C)cc1 -4.35%, CC(=O)O[C@H]1C[C@@H]2CC[C@H]3[C@H]4C[C@H]([N+]5(C)CCCCC5)[C@@H](OC(C)=O)[C@@]4(C)CC[C@@H]3[C@@]2(C)C[C@H]1N1CCCCC1 -6.43%, CCOc1ccccc1CNC(=O)Cc1ccc(NC(=O)N2CCCCc3ccccc32)cc1 8.28%, COc1ccc(Nc2nc(-c3cccc(Cl)c3)c3c(n2)-c2ccccc2OC3)cc1 2.39%, CCOC(=O)c1cnc2c(C)c(Cl)ccc2c1NCCc1ccc(OC)c(OC)c1 -9.44%, CCCCNS(=O)(=O)c1ccc2nc(-c3cccnc3)cc(C(=O)NCCCOC(C)C)c2c1 -6.78%, Cc1cccc2c1-c1sc(C(=O)N3CCN(c4ccccc4)CC3)cc1CO2 1.77%, CCOC(=O)C=C[C@H](C[C@@H]1CCNC1=O)NC(=O)[C@@H](CC(=O)[C@@H](NC(=O)c1cc(C)on1)C(C)C)Cc1ccc(F)cc1 -6.99%, CCOC(=O)c1ccc(NC(=O)C2CC(=O)NC(=Nc3ccc(C)c(C)c3)S2)cc1 (stereo unspecified) 0.239%, COc1ccccc1CNC(=O)Cn1c(=O)oc2cc(S(=O)(=O)N3CCCC3)ccc21 -5.5%, COc1ccccc1CNC(=O)c1cccc(N2CCCS2(=O)=O)c1 -6.9%, CCc1nc2nc(C)cc(Nc3cc(Cl)ccc3C)n2n1 8.53%, COc1ccc(Br)cc1C(=O)Nc1cccc2ccc(C)nc12 -0.102%, COc1cc(-c2nc(S(=O)(=O)c3ccc(Br)cc3)c(N3CCOCC3)o2)cc(OC)c1OC 3.05%, COc1ccc(-c2noc(N(c3ccc(F)c(Cl)c3)c3nc(-c4ccc(OC)c(OC)c4)no3)n2)cc1OC -8.83%, CC(=O)Nc1ccc(NC(=O)C2CCCN(S(=O)(=O)c3ccc4c(c3)CCCC(=O)N4)C2)cc1 (stereo unspecified) 9.17%, CCOC(=O)c1cnn(-c2ccc(C(=O)Nc3ccc(OC(F)(F)F)cc3)cc2)c1N 8%, Cc1nn(CC(=O)NCc2ccc(F)cc2)c2ccccc12 12.9%, CCCN(Cc1cccs1)C(=O)Nc1cc(Cl)ccc1C 16.7%, Cc1ccc2[nH]c3c(=O)n(CC(=O)NCc4ccco4)ncc3c2c1 -6.05%, COc1ccc(Cl)cc1NC(=O)Cn1ncc2c3ccccc3n(C)c2c1=O 0.659%, CCOC(=O)c1cccc(NC(=O)CCCn2nc(C)c3c(C)n(-c4ccccc4)nc3c2=O)c1 0.757%, CC(=O)Nc1ccc(NC(=O)C2CCN(c3c(NC(C)=O)c(C)nn3-c3ccccc3)CC2)cc1 -5.1%, Cc1ccc(OCCSc2nnc(-c3cccs3)o2)cc1Cl 2.08%, O=C(NCc1ccc(Cl)cc1)c1ccc2c(Cl)c3c(nc2c1)CCCC3 -9.85%, COc1ccc2c(c1)c(=O)c(C(=O)c1ccc(C)c(C)c1)cn2CC(=O)Nc1ccc2c(c1)OCCO2 1.54%, CCOc1ccccc1CNC(=O)CCn1c(=O)c2cccn2c2ccc(F)cc21 0.607%, COc1ccc(-c2nc3cc(C(C)C)ccc3o2)cc1NC(=O)c1ccccc1[N+](=O)[O-] -10.4%, Cn1c(SCC(=O)Nc2ccccc2)nnc1-c1ccccc1 5.05%, Cc1nnc(N2C(=O)c3oc4ccccc4c(=O)c3C2c2ccc(C(C)(C)C)cc2)s1 (stereo unspecified) -1.21%, COc1ccc(C(=O)CSc2nc(C)cc(C)c2C(=O)Nc2ccccc2C)cc1 -6.66%, COc1ccc(C)cc1NC(=O)CN1c2ccccc2S(=O)(=O)c2ccccc21 -3.62%, COC(=O)c1ccc(NC(=O)CC2C(=O)N(c3cccc(OC)c3)C(=O)N2Cc2ccco2)cc1 (stereo unspecified) 5.39%, COc1ccc(NC(=O)c2cccc(N3CCCS3(=O)=O)c2)cc1OC -5.11%, COc1ccccc1N1CCN(C(=O)Cn2c(=O)n3nc(-c4ccc(C)cc4)nc3c3ccccc32)CC1 8.72%, Cc1nc(N2CCCC2)ncc1C(=O)NCc1cccc(Cl)c1 -6.9%, COC(=O)c1ccc(NC(=O)CCS(=O)(=O)c2ccc(Br)s2)cc1 5.78%, Cc1ccc(NC(=O)CCOc2ccccc2)cc1 3.78%, COc1ccccc1CNC(=O)c1ccc(CS(=O)(=O)c2c(Cl)cccc2Cl)o1 7.63%, COc1cccc(-c2nc(S(=O)(=O)c3ccccc3)c(N3CCCCC3)o2)c1 3.18%, Cc1ccccc1OCCCCn1c(-c2ccc(Cl)cc2)nc2ccccc2c1=O -18.7%, CCCn1c(=O)c2sccc2n2c(CCCC(=O)N3CCN(c4ccccc4OC)CC3)nnc12 -0.84%, CCOC(=O)c1ccc(N2C(=O)c3[nH]nc(-c4ccc(C)cc4)c3C2c2ccc(O)c(OCC)c2)cc1 (stereo unspecified) 0.306%, NC1CCC(Nc2nc(Nc3ccc(C(=O)N4CCCCC4)cc3)c3ncn(-c4cccc(F)c4)c3n2)CC1 (stereo unspecified) -3.57%, Cc1ccc2c(=O)cc(C(=O)Nc3sc4c(c3C(=O)NCc3ccco3)CCC4)oc2c1 -0.875%, COc1ccccc1NC(=O)CSc1nnc(-c2ccccc2C)o1 2.5%, CCOc1ccc(-c2nnc(SCC(=O)Nc3cccc(OC)c3)nc2-c2ccc(OCC)cc2)cc1 -2.7%, O=C(NCC(c1ccc(Cl)cc1)N1CCOCC1)c1ccccc1F (stereo unspecified) -9.65%, O=C1CCc2cc(OCCCCc3nnnn3C3CCCCC3)ccc2N1 -12.9%, COc1ccc(C(=O)NCC(c2ccc3c(c2)OCO3)N2CCN(c3ccccc3F)CC2)cc1 (stereo unspecified) -4.69%, O=C1CCCc2cc(S(=O)(=O)N3CCCC(C(=O)NCc4ccc(Cl)cc4)C3)ccc2N1 (stereo unspecified) -4.66%, COc1cc(OC)cc(-c2nc(-c3ccc4c(c3)[nH]c(=O)n4C)no2)c1 3.7%, Cc1ccc2ncc(C(=O)Nc3ccc(OC(F)(F)F)cc3)c(=O)n2c1 1.48%

outcome, inactive:
Cc1cccc(C)c1NC(=O)c1csc2c1CCCC2, Cc1ccc(NC(=O)C2CCN(S(=O)(=O)c3c(C)noc3C)CC2)cc1, COC(=O)c1cc2oc3ccccc3c2n1Cc1nc(-c2ccccc2Cl)oc1C, CCOc1ccc(NC(=O)CSc2nc3ccsc3c(=O)n2C(C)CC)cc1 (stereo unspecified), CCOc1cccc(Nc2nn(-c3ccc(OC(F)(F)F)cc3)nc2C(C)=O)c1, Cc1ccc2nc(NCc3ccccc3)c3nnnn3c2c1, COc1ccc(-c2noc(N3CCC(C(=O)N4CCN(c5ccccc5OC)CC4)CC3)n2)cc1, CCCCN(C)CCNC(=O)c1ccc(Cn2c(=O)[nH]c3cc(OC)c(OC)cc3c2=O)cc1, CCc1ccc(CNC(=O)c2ccc3c(Cl)c4c(nc3c2)CCCC4)cc1, Cc1cc(N2CCN(c3cccc(C)c3C)CC2)n2cnnc2n1, CCOC(=O)c1ccc2nc(C)cc(Nc3cccc(C(=O)O)c3)c2c1, Cc1ccc(C)c(N2CCN(C(=O)CCC(=O)Nc3ccc4nc(N5CCCCC5)cc(C)c4c3)CC2)c1, Cc1ccc(CNc2nc(-c3ccco3)nn2S(C)(=O)=O)cc1, COc1ccc(Cl)cc1-n1nnc(-c2nc(-c3ccccc3)no2)c1C, CCc1ccc(NC(=O)CSc2nc3ccccc3nc2Cc2ccc(C)cc2)cc1, Cc1cccc(OCCSc2nc3ccccc3n2CC(=O)N2CCOCC2)c1, COCCNC(=O)c1ccc2c(=O)n(CCc3ccccc3)c(SCC(=O)CC(=O)OC)nc2c1, CCC(C)NC(=O)CSc1nc2cc3c(cc2c(=O)n1CCCC(=O)NCCc1ccc(OC)c(OC)c1)OCO3 (stereo unspecified), CCOC(=O)c1c(C)[nH]c(C)c1S(=O)(=O)N(C)CC(=O)Nc1cc(Cl)ccc1C, CC1=C(C(=O)OCc2ccc(C)cc2)C(c2ccccc2F)CC(=O)N1 (stereo unspecified), COc1ccc2c(c1)c(=O)c(C(=O)c1ccccc1)cn2CC(=O)Nc1ccc2c(c1)OCCO2, COc1cc(NC(=O)CCc2c(C)nn(-c3ccc(N4CCOCC4)nn3)c2C)cc(OC)c1OC, O=C(NCc1ccccc1F)C1CCN(c2nnc(-n3cccc3)s2)CC1, O=C(COc1ccc([N+](=O)[O-])cc1)Nc1nc2c(s1)CCCC2, COc1cccc(C2CC(=O)Nc3c2c(=O)[nH]c2nc4ccccc4n32)c1 (stereo unspecified), Cc1ccccc1-c1nnn(CC(=O)Nc2sc3c(c2C#N)CCC(C(C)(C)C)C3)n1 (stereo unspecified)
